From PubChem BioAssay AID1963576 (National Center for Advancing Translational Sciences (NCATS), 2024)
Hit rate of the full screen: of about 46,000 compounds, about 60 (0.1%) were called active. About 3% were inconclusive and are not listed. The call rests on the fitted dose curve; in most records, active means well fitted inhibition curve with a large enough effect; inconclusive means small, poorly fitted or top-dose-only effect; inactive means no such curve, though single readings can be large or run the other way. This is one part of the list.

Assay: Primary qHTS assay for Inhibitors of ovarian cancer metastasis using an organotypic tumor microenvironment (TME) model. Further: nearly all actives have a fitted effect of over 65% in size.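 On activity change, negative = inhibition: plate controls were DMSO wells for no effect and tomatine positive control wells for full effect.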
Settings: SKOV3ip1-GFP adhesion/invasion on 3D omental model, fluorescence; series mostly up to 45.8 µM; activity change, negative = inhibition: at the top concentration
In short: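 Primary human omental fibroblast/mesothelial 3D culture pre-formed 48 h. SKOV3ip1-GFP cells added with compounds (0.36-46 umol/L), incubated 2 h RT/16 h 37 C, fixed; GFP cells quantified at 488/509 nm.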

Activity change, negative = inhibition, inactive:
Cc1ccc(Nc2cc(C(=O)NC3CCCC3)c3ccccc3n2)c(C)c1 -3.95%
COc1cc(C2c3c(oc4ccccc4c3=O)C(=O)N2Cc2ccccc2Cl)ccc1O (centres undefined) 9.65%
COc1cc(CCC(=O)NCc2ccc3c(c2)CCN3C(=O)c2cccc(C)c2)cc(OC)c1OC -9.08%
CC(C)(C)c1ccc(C(=O)N2CC(=O)Nc3ccc(F)cc3C2c2ccc(F)cc2)cc1 (centres undefined) -4.04%
CCc1cnc2c(c1SCC(=O)NCc1ccccc1)c(=O)n(C)c(=O)n2C 0.735%
CCN1c2ccccc2-c2nc(SCC(=O)Nc3cc(OC)cc(OC)c3)ncc2S1(=O)=O -7.32%
CCCN(C(=O)c1c(C)oc2ncn(CC(C)C)c(=O)c12)c1ccccc1C 0.659%
COc1ccc(-c2nn(C)c3sc(C(=O)Nc4cc(OC)c(OC)c(OC)c4)cc23)cc1OC -1.77%
CCOc1ccccc1NC(=O)CSc1nnc(CC)c(CC)n1 6.72%
Cc1cccc2nc(Cn3c(=O)n(-c4ccccc4)c(=O)c4c5c(sc43)CCC5)cc(=O)n12 2.21%
COc1ccc(CCNC(=O)c2c(Nc3ccccc3C)sc(C(=O)c3ccccc3)c2N)cc1OC -12.4%
CC(C)n1c(SCC(=O)c2ccc(F)cc2)nc2c(sc3ccccc32)c1=O 5.13%
Cc1ccccc1OCC(=O)Nc1nnc(SCc2cc(=O)n3cccc(C)c3n2)s1 3.69%
Cc1ccc(O)c(NC(=O)C2=CC(c3cccs3)=NS(=O)(=O)N2C)c1 8.45%
COc1cccc(CNC(=O)c2cc3cc(C)ccc3n2C)c1 -42.6%
COc1cccc(CN2CCCN(Cc3ccc(F)cc3)S2(=O)=O)c1 2.63%
Cn1c(=O)n(C)c2cc(N3CCCCC3)c(NC(=O)Nc3ccc(Br)cc3)cc21 -3.29%
CCc1ccc(NC(=O)CSc2nc3c([nH]c4ccccc43)c(=O)n2C)cc1 -8.76%
CCN(CC)c1ccc(NC(=O)Cn2cc3c(n2)CCCC3)c(C)c1 -16.1%
CC1Cc2cc(S(=O)(=O)CCC(=O)Nc3ccc(F)cc3Cl)ccc2N1C(=O)C1CC1 (centres undefined) 14.1%
Cn1cc(S(=O)(=O)N2CCc3ccccc32)cc1C(=O)Nc1ccc(C(F)(F)F)cc1 -3.31%
Cc1ccc(-n2nc(C(=O)N3CCN(c4cc(C)ccc4C)CC3)c3c4ccccc4n(C)c3c2=O)cc1 -7.43%
Cc1c(NC(=O)C(C)(C)C)cccc1-c1nc2ccccc2s1 -1.24%
CCOC(=O)c1cc2c(=O)n3ccccc3nc2n(CC2CCCO2)c1=NC(=O)c1ccccc1OCC (centres undefined) 3.13%
COc1ccc(N2CCN(C(CNC(=O)c3c(F)cccc3F)c3ccc4c(c3)OCO4)CC2)cc1 (centres undefined) 3.47%
Cc1ccc(CNC(=O)C2CCCN(c3nn4cc(-c5ccc(C)cc5)nc4s3)C2)cc1 (centres undefined) 7.3%
COCCn1c(SCc2ccccc2F)nc2c([nH]c3ccccc32)c1=O -5.26%
COC(=O)Cc1c(C)c2ccc3c(c2oc1=O)CN(Cc1ccc(Cl)cc1)CO3 0.266%
COc1ccc(NC(=O)CCn2cnnn2)cc1 12.5%
Cc1cccc(CNC(=O)c2ccc(Cn3c(SCc4cccc(F)c4)nc4cccnc43)cc2)c1 -33.3%
COc1cc(CN(C(=O)c2ccc(C)cc2)C2CCS(=O)(=O)C2)cc(OC)c1OC (centres undefined) 2.72%
COc1ccc(CNC(=O)C2CCN(S(=O)(=O)N3CCC(C)CC3)CC2)c(OC)c1 3.39%
COc1ccc(-c2ccc(CCC(=O)O)n2-c2ccccc2C(F)(F)F)cc1 -8.83%
Cc1ccc(S(=O)(=O)c2cn(CC(=O)Nc3ccc4c(c3)OCO4)c3ccc(C)cc3c2=O)cc1 8.43%
N#C/C(=C\c1cccc(F)c1)c1nc(-c2cc3ccccc3oc2=O)cs1 7.23%
Cc1ccc2c(c1)c1c(c(=O)n(Cc3ccccc3)c(=O)n1Cc1cccc(F)c1)n2C 17%
Cc1ccccc1OCc1nnc(SCc2cc(=O)c3cc(F)ccc3[nH]2)n1C -2.19%
CCOC(=O)CN(Cc1ccccc1)C(C(=O)NC1CCCCC1)c1ccccc1 (centres undefined) -0.325%
CCOc1ccc(-c2cc(C)n3nc(C(=O)Nc4ccc(C)c(C)c4)cc3n2)cc1 -8.61%
CCc1nnc(SCC(=O)Nc2ccc(OC)c(OC)c2)c2cc3occc3n12 2.76%
CC(Oc1ccccc1)C(=O)Nc1ccccc1C(=O)OCc1cc(=O)n2nc(C3CC3)sc2n1 (centres undefined) 0.555%
COc1ccc(C(=O)N(c2ccc(OC)cc2)S(=O)(=O)c2ccc3c(c2)n(C)c(=O)n3C)cc1 4.87%
Cc1ccc(-c2nnc(Nc3ccccc3)c3ccccc23)cc1S(=O)(=O)NCc1nc2ccccc2[nH]1 4.45%
Cc1cccc(N2CCN(C(=O)CCS(=O)(=O)c3ccc4c(c3)oc(=O)n4C)CC2)c1C 14.9%
Cc1ccccc1NC(=O)CCC(=O)N1CC(C)Sc2ccccc21 (centres undefined) 3.03%
COc1cccc(CNC(=O)CSC2=Nc3ccccc3C3=NC(C(C)C)C(=O)N23)c1 (centres undefined) 1.84%
C=Cc1ccc(COc2ccc3oc(-c4ccccc4)c(C(=O)OCC)c3c2)cc1 7.54%
COc1ccc(CNC(=O)c2cc(=O)c3cc(C)ccc3o2)cc1 -6.13%
CCOC(=O)c1ccc(NC(=O)C2(S(=O)(=O)c3ccc(Cl)cc3)CC2)cc1 3.23%
O=C(Nc1noc2ccccc12)c1ccc(F)cc1 4.86%
NC(=O)CSc1ncc2c(n1)-c1ccccc1N(Cc1ccc(Cl)cc1)S2(=O)=O -8.79%
O=C(CN1C(=O)C2(SCC(=O)N2c2ccccc2)c2ccccc21)NCc1ccccc1 (centres undefined) 1.02%
O=C(Nc1cccc(Cl)c1Cl)c1cc(S(=O)(=O)NCCc2ccccc2)ccc1F 2.58%
O=C(O)C1(Cc2cccc(Nc3nccs3)n2)CCC(Oc2cccc(Cl)c2F)CC1 (centres undefined) 15.8%
Cc1c(Cl)cccc1NC(=O)Cn1nnc2sc3c(c2c1=O)CCCC3 3.28%
COc1ccccc1C(=O)Nc1cccc(C(=O)OCc2cc(=O)n3nc(C)sc3n2)c1 4.55%
O=C(NCc1ccc2c(c1)CCN2C(=O)c1ccc(F)cc1)c1ccco1 -3.74%
CC(C)c1noc(-c2ccccc2OCC(=O)Nc2ccccc2[N+](=O)[O-])n1 2.38%
Cc1cc(Nc2ccc(Cl)cc2C)nc(-n2nc(C)cc2C)n1 -9.09%
Cc1nn(CC(=O)Nc2cc(F)ccc2F)c(=O)c2cccn12 -8.42%
CCN(C(=O)c1cc2c(=O)n3cccc(C)c3nc2s1)c1ccc(C)c(C)c1 -9.34%
CCOC(=O)[C@H]1O[C@H]1C(=O)N[C@@H](CC(C)C)C(=O)NCCC(C)C 0.892%
CCC(=O)Nc1ccc2nc3c(=O)n(C)c(=O)n(C)c3nc2c1 6.75%
CCOc1ccc(C(=O)Nc2ccc(-n3nncc3-c3ccccc3)cc2)cc1OCC 6.53%
Cc1c(CNC2CCCCC2)c(C(=O)O)c(C)n1Cc1ccc(F)cc1 10.8%
CC(C)c1nc2n(n1)C1(CCCCC1)[C@@H]1CCCC[C@@H]1N2 4.46%
Cc1oc2ccc(O)c(CN3CCN(C)CC3)c2c1C(=O)Nc1cccc(C(F)(F)F)c1 -17.8%
O=C(CSc1nc2c([nH]c3ccccc32)c(=O)n1-c1cccc(Cl)c1)N1CCOCC1 -12.8%
COc1cccc(CNC(=O)C2(c3cccs3)CCOCC2)c1 -0.94%
O=C(Cn1c(=O)c2ccccc2n(CC(=O)Nc2ccc(F)cc2)c1=O)NCCc1ccccc1 -0.153%
Cc1oc(-c2cccc(Cl)c2)nc1CN1CCCC(C(=O)N2CCN(c3ccc(F)cc3)CC2)C1 (centres undefined) 6.2%
COc1c(Cl)cc(C(=O)N(Cc2ccc(C)o2)C2CCS(=O)(=O)C2)cc1Cl (centres undefined) 7.84%
Cc1cccc(Cn2c(C)c(CNC3CCCCCC3)c(C(=O)O)c2C)c1 6.47%
COc1ccc(-c2nc3c4ccccc4n(CC(=O)N4CCN(c5ccc(F)cc5)CC4)c(=O)n3n2)cc1 -13%
N#CC1(c2ccc(NC(=O)c3cccnc3NCc3ccncc3)cc2)CCCC1 -15.5%

outcome, inactive:
Cc1cc(C)c2oc(-c3cccc(NC(=O)c4cc5ccccc5o4)c3)nc2c1
COc1ccccc1OCCCn1c(C2CC(=O)N(c3ccc(F)cc3)C2)nc2ccccc21 (centres undefined)
COc1ccc(C)cc1NC(=O)C1CCN(S(=O)(=O)Cc2ccccc2)CC1
CCCOc1ccc(C(=O)Nc2cc(-c3nc4ccccc4[nH]3)ccc2C)cc1
CCOc1ccccc1NC(=O)Cn1c(=O)n(-c2ccc(Cl)cc2)c(=O)c2oc3ccccc3c21
Cc1ccc(-n2c(=O)c3ccc(C(=O)NCc4ccccc4Cl)cc3n(Cc3cccc(F)c3)c2=O)cc1
CCOc1ccc(-n2cc(-c3ccccc3)c3c(NCc4ccccc4)ncnc32)cc1
COc1ccc(-c2nc3ccccc3o2)cc1NC(=O)c1cc([N+](=O)[O-])ccc1N1CCOCC1
CCC1CN(CC(=O)NCc2cccc(Br)c2)c2ccccc2S1 (centres undefined)
COC(=O)Cc1c(C)nc2nc(NCc3ccc(Br)cc3)[nH]n2c1=O
CCc1ccc(N2CC(C)Cn3c2nc2c3c(=O)n(CC(=O)O)c(=O)n2C)cc1 (centres undefined)
Cc1ccc(C)c(N2CCN(CCCNC(=O)c3ccc4nc(N5CCCCC5)sc4c3)CC2)c1
CCOC(=O)COc1ccc([N+](=O)[O-])cc1-c1ccnc2cc(-c3ccc(C)cc3)nn12
Cc1cccc(C)c1NS(=O)(=O)c1ccc(NS(=O)(=O)c2ccc3c(c2)OCCO3)cc1
CC(C)(C)c1ccccc1NC(=O)CSc1nc(-c2cccs2)cc(C(F)(F)F)n1
CCC(NC(=O)Nc1cc(OC)ccc1OC)c1c(-n2cccc2)sc2c1CCN(CC)C2 (centres undefined)
CCOC(=O)c1c(NC(=O)CSc2cn(CCNC(=O)c3ccccc3OC)c3ccccc23)sc2c1CCC2
CCCCCC(=O)Nc1ccc(NC(=O)c2cc3ccccc3o2)c(OC)c1
CCOc1ccc(-n2c(CC)nc3c(cnn3-c3ccc(Cl)cc3)c2=O)cc1
